Measurements as given in paper PMC12136788.
Some of the results follow.

T1: UNK ZnF1-3 (human, UniProt Q9C0B0 31-174)
T1 sequence: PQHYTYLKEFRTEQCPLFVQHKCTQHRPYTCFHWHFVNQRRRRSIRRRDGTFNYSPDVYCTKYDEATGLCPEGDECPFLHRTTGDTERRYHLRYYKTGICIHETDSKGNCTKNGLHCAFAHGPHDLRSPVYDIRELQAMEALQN

B1: 55563855_55566620_2091_CDS_ENSG00000115355_ENST00000336838|human|control|control (ssRNA)
RNA: GGGAGUUCUACAGUCCGACGAUCUUCAAGCUGAGCUUUCUCCUUCAUUAGAUCCUUGCUUAAAUUCUGACAAUUCUGAAGACUUUGCUUUUCUUGAACAAUCUCAUUUUCAAGAAUCUCAACCUUUUUACUGAGCCUUUGAUUCAACAGAGGAUUGAGCAUCA
B2: chr4:155069534:155069535:+_ENSMUSG00000074738_ENSMUST00000099265|mus_mus|motif|central (ssRNA)
RNA: GGGAGUUCUACAGUCCGACGAUCAUGAUCCUGGGUGCCAGUGGUUUUUGCCAGAAGGGAAUGUAUAUUCUGGCCGGCUCGGUAAAGGCCUCUGGAGAUGGAGAAGACCCCUGGCUGCCAUUGACACUCUAGCCCAGGCCUAUGCAACAGAGGAUUGAGCAUCA
B3: 22262294_22262414_250_3pUTR_ENSG00000104635_ENST00000381237|human|control|control (ssRNA)
RNA: GGGAGUUCUACAGUCCGACGAUCGCCUUCAGCUGCUGCAGAGUGAGGCUGUCACCCUCGCCAUACCGAUGUAUUAGAUCCUGCAGGAAGGAGGCAGCGCUGAUAGCUGGUGCACCCAGGGAUGAAGCGUGAGCCUCAGGGGUGCAACAGAGGAUUGAGCAUCA
B4: chr1:23883277:23883278:-_ENSMUSG00000026155_ENSMUST00000027339|mus_hu|FALSE|FALSE (ssRNA)
RNA: GGGAGUUCUACAGUCCGACGAUCCUCCUUUUCUCUCUUUUUCUCUUCCUUUUUUUUUUCCUUUUCUUUAUUUGUAAUAGCUAUGGCAUUUUUAUCGUAGUAUUUCUUCUUUUCAUAUUUAUCUCUGAUGAAAAAUUCCACUGCCAACAGAGGAUUGAGCAUCA
B5: 33338675_33344321_3692_CDS_ENSG00000083642_ENST00000450460|human|control|control (ssRNA)
RNA: GGGAGUUCUACAGUCCGACGAUCUAAUUUCUCCUCCUGUUCUGUGACGGGCGUUUUUUUCCUGCCUCUAGGCUUCUCCAAUUCAGACCUUACAAGAUCAGAGUCGUCUCUCUUGUCACUUUUUUUCCCCGGCAAAGGUGAAGACAACAGAGGAUUGAGCAUCA
B6: chr8:113366719:113366720:-_ENSMUSG00000033732_ENSMUST00000042012|mus_hu|FALSE|FALSE (ssRNA)
RNA: GGGAGUUCUACAGUCCGACGAUCCAUAUUCUUAGAUGGCUGGUAUUCCAAAAUAACAAUUCGACCAGAGUCACUGCCAACUACAAUGUAGUCUUUGGUGCCACCUGUCAGCCUAAAGGCCAUGAGUGACCGGAUAACACCGAACAACAGAGGAUUGAGCAUCA
B7: chrX:118797523:118797524:-_ENSG00000125354_ENST00000360156|hu_hu|motif|central (ssRNA)
RNA: GGGAGUUCUACAGUCCGACGAUCCACGAUAGGCUUGUAGCUGUCCUCUUUGUUGAUCUGGUCCCCAAAGCCAACUGUGCGGACGAUCGUGAGCUUUAGCCUCACGUUGCUCUCUUGGAGGUCAUAGGUAUUAGACUGGAGCUGCAACAGAGGAUUGAGCAUCA
B8: chr9:122046571:122046572:+_ENSMUSG00000038145_ENSMUST00000120173|mus_mus|motif|central (ssRNA)
RNA: GGGAGUUCUACAGUCCGACGAUCCUGAAAUUUGUUGCUGAAGCCAAAGUCUGUCAACUUCACAAGACCUUGUUUUUCAAAAAAGACGGCAUUCUCUGGUUUCAAGUCUCUGUGGACCACAUGGAGUUUAUGGCAAUAAGAUAUCAACAGAGGAUUGAGCAUCA
B9: chr2:31148120:31148121:+_ENSMUSG00000062661_ENSMUST00000000199|mus_hu|FALSE|FALSE (ssRNA)
RNA: GGGAGUUCUACAGUCCGACGAUCGUCUUCUAGGACAGAAGGUAGUUGUUUUUUUUUCUUUUAAAACGUCUGUUCAAAAUAAAAAACAAAAGCACACGCGCAAGAGAGCGGGAGGAACGGAGGCUGCCUGCGAGGCAGCCAAGUCAACAGAGGAUUGAGCAUCA
B10: 135987530_135996469_154_CDS_ENSG00000160271_ENST00000372050|human|control|control (ssRNA)
RNA: GGGAGUUCUACAGUCCGACGAUCCGUGGAGCUCUCCGGGCGCGGCAGGUCGGGGUCUAGCUGCGUGAAGCUGUGCAGCACCACCGGGCAGCUGUCGGGGACGCCCACCUCCAGGCGCACGGCGUCCCACACGCUGCGGCUCCGCAACAGAGGAUUGAGCAUCA
B11: chr22:19452774:19452775:-_ENSG00000070010_ENST00000399523|hu_hu|hu_hu_hu_mus_False|38_48 (ssRNA)
RNA: GGGAGUUCUACAGUCCGACGAUCCUUCUCAUUGUAGUUGAUAGCAAUCACAUCUCCAGUCGUCAGACAGGCGAAGUUUCUCAAUGCGUUUUCUAAUACGGCUUUGGGGUUGGUAAUAUCCAGGAAGUCUGGGCUCUGAGGCUGCAACAGAGGAUUGAGCAUCA
B12: chr18:38101097:38101098:-_ENSMUSG00000024454_ENSMUST00000043498|mus_hu|FALSE|FALSE (ssRNA)
RNA: GGGAGUUCUACAGUCCGACGAUCGGUGCUGACAUCUGGAUGAAGUGUGAAGUCUGGGGCAAAGUACUCGAAGUAUUCACUAUAGGGAAGCUCCUCACUAAUGGCCUCUUCUACCAGCAGCGAUGUCUCAUAUGUCCAGCAGCGCAACAGAGGAUUGAGCAUCA
B13: chr2:73747330:73747331:-_ENSMUSG00000018770_ENSMUST00000018914|mus_mus|FALSE|FALSE (ssRNA)
RNA: GGGAGUUCUACAGUCCGACGAUCUCCAAUACCAGCACCAGAACCAGCAACUCCUACUGUUGCAGCACCUGCACCAAUGAAUUUGGCAGCAGUAUCAAUGUCUCUGCUGAUUACACUGGUCUGAAACUCCCUUCGGAUCAGCUGCAACAGAGGAUUGAGCAUCA
B14: 62400096_62400216_893_CDS_ENSG00000089597_ENST00000356638|human|control|control (ssRNA)
RNA: GGGAGUUCUACAGUCCGACGAUCGCCCAAGUCGCGAUGAGGGUUGUGUGCCAGGAGCACAGGCACAGACCCAUACAAGGCCAUUGGGUUGUACAGCUCAUACUGGAACACAUCCAAAUUGUAGAGGCGAUAUGGCUCCCCACCCAACAGAGGAUUGAGCAUCA

The binders below were run against T1, UNK ZnF1-3 (assay: nsRBNS (natural sequence RNA bind-n-seq); RBNS binding buffer (assumed for nsRBNS): 25 mM Tris pH 7.5, 150 mM KCl, 3 mM MgCl2, 0.01% Triton X-100, 500 ug/ml BSA, 20 U/ml SUPERase-In, 4 C; UNK is unkempt and MSI1 is Musashi-1; names of the RNAs are library labels; protein concentration not given here; high values mean tight binding).
B1 was tested, and the binding signal was 0.398 enrichment R. For B2, the binding signal was 0.732 enrichment R. With B3 the binding signal was 1.16 enrichment R. B4 showed a binding signal of 0.285 enrichment R. B5 gave a binding signal of 0.716 enrichment R. B6 gave a binding signal of 0.691 enrichment R. B7 showed a binding signal of 0.808 enrichment R. In the case of B8, the binding signal is reported as 0.804 enrichment R. Work on B9 yielded a binding signal of 1 enrichment R. With B10 the binding signal was 0.355 enrichment R. Binder B11 has a binding signal of 0.804 enrichment R. Binder B12 has a binding signal of 0.945 enrichment R. In the case of B13, the binding signal is reported as 0.795 enrichment R. B14 was tested, and the binding signal was 0.774 enrichment R.
